# Results taken from PubChem BioAssay AID504832 (National Center for Advancing Translational Sciences (NCATS), 2011).
# The campaign covered roughly 310,000 compounds. About 18,000 (5.8%) were called active. The inconclusive results got no clear call from the source; some entries with a clear call stand among them for comparison. Calls follow the shape of the dose curve; as a rule, active = well fitted inhibition curve with a large enough effect; inconclusive = small, poorly fitted or top-dose-only effect, or another doubt; inactive = no such curve, though single readings can be large or run the other way. Potencies of inconclusive entries are left out as doubtful fits.
# Assay: Primary qHTS for delayed death inhibitors of the malarial parasite plastid, 48 hour incubation
# Conditions: P. falciparum luciferase growth in erythrocytes; series mostly up to 28.7 µM
# In short: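 Luciferase-expressing parasites in RBCs, 2% Hct / 0.1% parasitemia final; RPMI 1640 + 0.5% Albumax; 37 C, 5% CO2, one generation; luminescence read-out, lower signal = inhibition.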
# Potency is read from the fitted curve at half-maximal effect; tags tell the direction and shape of the fitted curve.
row,Structure (SMILES),Potency
1,CC(=O)c1cccc(NC(=S)NC(=O)c2cccc(C)c2)c1,inactive
2,COc1cc(/C=C2\C(=N)N3N=C(S(C)(=O)=O)SC3=NC2=O)ccc1OS(=O)(=O)c1ccc(C)cc1,inactive
3,O=C(COc1cccc2ccccc12)Nc1nc2ccccc2[nH]1,inactive
4,CCc1ccc(NC(=O)C(C)OC(=O)CC(NC(C)=O)c2ccccc2)cc1 (centres undefined),"inconclusive [inhibitor, full curve, poor fit]"
5,CSc1nc2c(c(=O)n1Cc1ccccc1)SC(C)C2 (centres undefined),active: 11.7 µM
6,CC(=O)c1ccc(OCc2cc(C(=O)N(C)CCOc3ccc(C)cc3)no2)cc1,inactive
7,CC(C(=O)N1CCOCC1)(c1ccccc1)c1ccccc1,"inconclusive [inhibitor, partial curve, poor fit]"
8,CCOC(=O)C1=CN(C)C=C(C(=O)OCC)C1c1ccsc1,"inconclusive [inhibitor, single point]"
9,O=C(NCc1cccs1)C(Cc1ccccc1)n1cccc1 (centres undefined),"inconclusive [inhibitor, single point]"
10,O=C(NC(c1ccccc1)C(Cl)(Cl)Cl)c1ccccc1 (centres undefined),"inconclusive [inhibitor, single point]"
11,COc1ccc(NC(=O)CSc2nc(NS(=O)(=O)c3ccccc3)cc(=O)[nH]2)cc1,"inconclusive [inhibitor, partial curve]"
12,Cc1oc2c(c1C(=O)O)C(=O)c1ccccc1C2=O,"inconclusive [inhibitor, single point]"
13,Cc1ccc(C(=O)Nc2cccnc2)cc1S(=O)(=O)N1CCOCC1,inactive
14,C=C(C)c1cccc(C(C)(C)NC(=O)Nn2cnnc2)c1,inactive
15,CCN(CC)S(=O)(=O)c1ccc(-c2nnc(SCC(=O)Nc3cc(OC)cc(OC)c3)o2)cc1,active: 13.1 µM
16,CCOC(=O)Cc1ncccc1C(=O)Nc1ccc(OC(F)(F)F)cc1,"inconclusive [inhibitor, single point]"
17,OCCCc1ccc(O)c(O)c1,inactive
18,Cc1ccc(N(Cc2cc(=O)[nH]c3ccccc23)C(=O)c2ccco2)cc1,"inconclusive [inhibitor, partial curve, poor fit]"
19,Cc1ccccc1N=C/C=C1/C=C(c2ccccc2)OC(C)(C)O1,"inconclusive [inhibitor, single point]"
20,Cc1cc(C)cc(NC(=O)c2ccc(S(=O)(=O)N(C)CC3CCCO3)cc2)c1 (centres undefined),"inconclusive [inhibitor, full curve, poor fit]"
21,CCN1C(=O)S/C(=C/c2ccc(Oc3ccc([N+](=O)[O-])cn3)c(OC)c2)C1=O,"inconclusive [inhibitor, partial curve, poor fit]"
22,COc1ccc(NS(=O)(=O)c2cc(NC(=O)/C=C/c3cc(OC)ccc3OC)ccc2N2CCCCC2)cc1,active: 4.15 µM

row,Structure (SMILES),Potency
1,CCC(C)NC(=O)CCc1c(C)nc2nc(-c3cc(OC)cc(OC)c3)nn2c1C (centres undefined),"inconclusive [inhibitor, single point]"
2,O=C(NC1CC1)C(Cc1ccccc1)NS(=O)(=O)c1ccccc1F (centres undefined),inactive
3,COC(=O)c1cccc(Nc2nc(-c3cccnc3)nc3ccccc23)c1,"inconclusive [inhibitor, single point]"
4,COc1ccc(C2N(C(C)=O)CCN2S(=O)(=O)c2ccc(C)cc2)cc1 (centres undefined),inactive
5,CC(=O)Nc1cccc(NC(=O)CCCC2CCCCC2)c1,"inconclusive [inhibitor, partial curve, poor fit]"
6,Cc1ccc(S(=O)(=O)N2CCCCC2CCNC(=O)C(=O)NCc2cccnc2)cc1 (centres undefined),"inconclusive [inhibitor, partial curve]"
7,CC(C)CNC(=O)Cn1c(=O)c2c(ncn2CC(C)C)n(Cc2ccccc2)c1=O,"inconclusive [inhibitor, full curve]"
8,Fc1ccc(CNc2nc(-c3ccccc3)nc3ccccc23)cc1,"inconclusive [inhibitor, partial curve, poor fit]"
9,O=C(O)CCCC(=O)N1N=C(c2ccccc2)CC1c1ccc2c(c1)OCO2 (centres undefined),"inconclusive [inhibitor, full curve]"
10,Cc1onc(-c2ccc(Cl)cc2)c1-c1ccnc(SCC(=O)Nc2cc(Cl)cc(Cl)c2)n1,"inconclusive [inhibitor, single point]"
11,COc1ccc(C2=NN(C(=O)CSc3ncccn3)C(c3ccc(C)cc3)C2)cc1 (centres undefined),"inconclusive [inhibitor, single point]"
12,CC(C)(C)NC(=O)CCN(/N=C/c1ccccc1F)C1=NS(=O)(=O)c2ccccc21,inactive
13,CCOc1ccc(N(CC(=O)NCCSCc2ccccc2)S(=O)(=O)c2ccccc2)cc1,"inconclusive [inhibitor, single point]"
14,COc1ccc2[nH]c(=O)c(CN(Cc3cccs3)Cc3nnnn3C(C)(C)C)cc2c1,"inconclusive [inhibitor, single point]"
15,CC(NC(=O)Cc1cccs1)C(c1cccs1)N1CCOCC1 (centres undefined),active: 13.1 µM
16,Cc1cc2ccccn2c1C(=O)c1nc(NCc2ccco2)ncc1Cl,"inconclusive [inhibitor, partial curve, poor fit]"
17,CNS(=O)(=O)c1ccc(NS(=O)(=O)c2ccccc2F)cc1,inactive
18,O=S(=O)(Nc1c(S(=O)(=O)c2ccccc2)c2nc3ccccc3nc2n1C1CCCCC1)c1ccccc1,active: 3.7 µM
19,C=CCc1cccc(/C=N/NC(=O)C[n+]2ccccc2)c1O,"inconclusive [inhibitor, single point]"
20,CCCc1cc(-n2cnc3ccccc32)n2c(nc3ccccc32)c1C#N,"inconclusive [inhibitor, single point]"
21,Cc1nc(C)c(C(=O)N(c2ccc(F)cc2)C(C(=O)NCC2CCCO2)c2ccccc2)s1 (centres undefined),inactive
22,COc1ccc(/C=C/C(=O)OCC(=O)NC2CCCC(C)C2C)cc1S(=O)(=O)N1CCOCC1 (centres undefined),"inconclusive [inhibitor, single point]"
